According to PMC4336329 (PLoS ONE, 2015):
About 14,000 (4.5%) of roughly 310,000 compounds showed an effect of 50% or more. The effect is printed as a negative number. Some of the results follow.

The compounds below were run against human ether-à-go-go-related gene (hERG) potassium channel (human, UniProt Q12809) (assay: primary screen, population patch clamp on CHO cells stably expressing hERG).
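Note: peak tail current of the secondary pulse compared with the same well before compound.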

Chain of human ether-à-go-go-related gene (hERG) potassium channel (Q12809 whole entry, looked up): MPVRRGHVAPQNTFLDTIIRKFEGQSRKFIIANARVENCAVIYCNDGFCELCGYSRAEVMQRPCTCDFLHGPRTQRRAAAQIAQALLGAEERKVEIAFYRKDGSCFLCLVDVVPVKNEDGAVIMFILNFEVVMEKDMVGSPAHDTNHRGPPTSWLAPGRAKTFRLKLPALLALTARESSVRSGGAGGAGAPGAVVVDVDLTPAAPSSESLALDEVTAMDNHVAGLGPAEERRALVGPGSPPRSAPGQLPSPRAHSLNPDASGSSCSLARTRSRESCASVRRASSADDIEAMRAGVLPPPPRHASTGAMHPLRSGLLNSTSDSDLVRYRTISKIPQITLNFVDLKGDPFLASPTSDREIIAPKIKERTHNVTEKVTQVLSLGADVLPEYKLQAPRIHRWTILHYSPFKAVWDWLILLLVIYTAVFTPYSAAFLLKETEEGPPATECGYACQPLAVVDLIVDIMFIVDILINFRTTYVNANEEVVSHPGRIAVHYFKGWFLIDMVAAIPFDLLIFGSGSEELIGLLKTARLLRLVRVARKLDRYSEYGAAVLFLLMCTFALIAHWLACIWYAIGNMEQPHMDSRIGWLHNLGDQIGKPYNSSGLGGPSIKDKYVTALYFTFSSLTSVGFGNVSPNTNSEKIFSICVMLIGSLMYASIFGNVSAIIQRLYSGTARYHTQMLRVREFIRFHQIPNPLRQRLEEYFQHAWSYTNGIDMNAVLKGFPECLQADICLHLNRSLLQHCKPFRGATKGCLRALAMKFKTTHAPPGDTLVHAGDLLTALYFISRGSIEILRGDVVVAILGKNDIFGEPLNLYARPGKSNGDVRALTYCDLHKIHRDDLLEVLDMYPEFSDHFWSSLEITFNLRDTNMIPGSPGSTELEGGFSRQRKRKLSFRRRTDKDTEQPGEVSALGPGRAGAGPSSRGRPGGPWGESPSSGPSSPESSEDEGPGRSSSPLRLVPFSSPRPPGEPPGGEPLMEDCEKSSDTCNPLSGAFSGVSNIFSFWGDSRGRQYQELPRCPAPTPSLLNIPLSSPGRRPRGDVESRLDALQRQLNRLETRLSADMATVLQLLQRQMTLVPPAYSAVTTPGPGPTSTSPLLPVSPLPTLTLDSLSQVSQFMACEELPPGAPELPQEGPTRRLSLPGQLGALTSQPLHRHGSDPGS

Point of comparison: `CCOc1ccc(CN(C)C(=O)[C@H](C)NC(=O)c2ccco2)cc1OC`, “hERG current change (%, negative = inhibition) at 10uM” value 14.3%. Against it:
- Cc1ccc(N=C2SC(C(=O)O)CC(=O)N2C)cc1C (stereo not shown) — lower, 11.8%
- CC1CCc2c(sc3nn[nH]c(=O)c23)C1 (stereo not shown) — lower, -12.4%
- CC(NC(=O)/C(=C\c1cccc([N+](=O)[O-])c1)NC(=O)c1ccco1)C(=O)O (stereo not shown) — higher, 39.2%
- COc1ccc(CNC(=O)Cn2nc(C(F)(F)F)c(Br)c2C)cc1 — lower, -1.49%
- NS(=O)(=O)c1ccc(CNC(=O)c2cc(-c3cccnc3)nc3ccc(Br)cc23)cc1 — higher, 14.6%
- NC(=O)Cn1c(=O)n(Cc2ccccc2)c(=O)c2cccnc21 — lower, 8.29%
- O=C(COC(=O)c1ccc(S(=O)(=O)N2CCOCC2)cc1)Nc1ccccc1F — lower, -4.7%
- Cc1cc(C)n2nc(SCc3c(F)cccc3Cl)nc2n1 — lower, -5.21%
- O=C(COC(=O)c1ccc(S(=O)(=O)NCc2ccco2)cc1)Nc1ccccc1OC(F)F — lower, -1.51%
- CC(=O)OCC(=O)N1N=C(c2ccc3ccccc3c2)CC1c1ccccc1 (stereo not shown) — lower, 3.79%
- CC(=O)n1cc(-c2ccncc2)c2ccccc21.Cl — lower, -11.7%
- CCO[C@@H]1OC(C(=O)NC2CC2)=C[C@H](c2ccc(Br)cc2)[C@H]1CCCO — lower, -20.2%
- Cc1ccc(CC2CC(=O)N(c3nc(C)cc(C)n3)C2=O)cc1 (stereo not shown) — lower, -12.1%
- COc1ccc(N2CCN(CC(O)c3c[nH]c4ccc(OC)cc34)CC2C)cc1 (stereo not shown) — lower, -68.1%
- Br.N=c1n(CC(=O)c2ccc([N+](=O)[O-])cc2)c2ccccc2n1Cc1ccccc1Cl — lower, -23.6%
- CC1(c2ccc(OC(F)F)cc2)NC(=O)N(CC(=O)Nc2cccc(F)c2)C1=O (stereo not shown) — lower, 2.79%
- Cc1ccc(NC(=O)COC(=O)C2CSC3(C)CCC(=O)N23)c(C)c1 (stereo not shown) — lower, -3.36%
- N[C@@H](C(=O)N[C@@H]1C(=O)N2C(C(=O)O)=C(Cl)CS[C@H]12)c1ccccc1 — higher, 19.2%
- C=CCn1c(=NC(=O)C2COc3ccccc3O2)sc2cc(S(N)(=O)=O)ccc21 (stereo not shown) — lower, 12.4%
- CCCN(C(=O)CSc1nc2c(cnn2-c2ccccc2)c(=O)[nH]1)C1CCS(=O)(=O)C1 (stereo not shown) — lower, 1.97%
- Cn1c(O)c(C(=N)COc2ccccc2)c(=O)n(C)c1=O — lower, 1.14%
- CN1CCCN(Cc2ccccc2C(F)(F)F)CC1 — lower, 8.06%
- N#Cc1c(N2CCCCC2)nc(N)c2c(N)nc3c(c12)CC(CCl)O3 (stereo not shown) — lower, -2.22%
- Cc1ccc(S(=O)(=O)Nc2cccc3cccnc23)cc1 — lower, -12.1%
- COc1ccc(C(=O)Nc2ncc3c(n2)CC(C)CC3=O)cc1 (stereo not shown) — lower, -24%
- Cc1cccc2cc(CN(Cc3nnnn3Cc3ccccc3)C3CCCC3)c(=O)[nH]c12 — lower, -22.7%
- CC(C)(C)c1cc(C(=O)Nc2ccccc2)ccn1 — lower, -1.77%
- Cc1ccc(NC(=O)CCCn2c(=O)oc3ccccc32)c(O)c1 — lower, -12.3%
- COC/C=C/C1=CC2=CC(=O)C(C)(OC(=O)c3cnc4ccccc4n3)C(=O)C2=CN1Cc1ccc(OC)cc1 (stereo not shown) — lower, 0.29%
- Cc1cccc(OCC(=O)N(Cc2cccs2)C2CCS(=O)(=O)C2)c1 (stereo not shown) — lower, -15.8%
- Cc1ccc(S(=O)(=O)n2c([N+](=O)[O-])cnc2C)cc1C — higher, 18%
- CS(=O)(=O)c1ccc2nc(NC(=O)CCN3C(=O)c4ccccc4C3=O)sc2c1 — higher, 26.7%
- CC(C)CC(C(=O)NC1CCCC1)N(Cc1cccs1)C(=O)c1snc(C(N)=O)c1N (stereo not shown) — lower, -40.5%
- Cc1nc(SCC(=O)c2ccc(F)c(F)c2)[nH]c(=O)c1Oc1ccc(F)cc1 — lower, -16.1%
- CC(C(=O)Nc1ncc2c(n1)CC(C)(C)CC2=O)N1C(=O)c2ccccc2C1=O (stereo not shown) — lower, -19.4%
- O=C(NNC(=O)c1ccccc1Br)c1ccc(Cl)c(Cl)c1 — lower, -6.54%
- CCC12CN3CCN(CC(C3)/C1=N\NC(=O)c1ccc(Cl)cc1)C2 — lower, 11.5%
- Cc1ccc(O)c(NC(=O)c2cc3nc4c(c(C(F)(F)F)n3n2)CCc2ccccc2-4)c1 — lower, -15.3%
- O=C(CSc1nnc(-c2ccc(O)cc2)n1Cc1ccccc1)NNC(=O)c1ccc(Br)cc1 — lower, -4.24%
- COC(=O)c1ccc(COC(=O)c2ccc(S(=O)(=O)N3CCC(C)CC3)cc2)o1 — lower, 5.04%
- COc1ccc(CCN(CC(=O)NC2CCCC2)C(=O)CCC(=O)Nc2cc(C)on2)cc1OC — lower, 1.84%
- CCN(CC)NC(=S)Nc1ccccc1 — lower, 11.3%
- COc1cc(C(F)(F)F)c(C(=O)N(C)c2ccc(Cl)cc2)cn1 — lower, -2.38%
- Cc1cc(C)n(CC(=O)NNC(=O)COc2ccc(Cl)cc2Cl)n1 — lower, 3.06%
- COc1cc(OC)c2c(c1)C(=O)OC2 — lower, -10.3%
- COc1ccc(C)cc1NC(=O)CCCN1C(=S)NC(C)(C)CC1C (stereo not shown) — lower, 10.2%
- C=CCOc1cccc(C2/C(=C(\O)c3ccc(F)cc3)C(=O)C(=O)N2CCN(C)C)c1 (stereo not shown) — lower, 4.14%
- CC(=O)N1CCOc2cc(S(=O)(=O)N3CCN(c4ccccc4)CC3)c(Cl)cc21 — lower, -21.1%
- CCc1c(C(=O)NNC(=S)NCCc2ccccc2)csc1C — lower, 3.19%
- CC(C)(OC(=O)NC(=O)C(F)(F)F)C(C)(C)OC(=O)NC(=O)C(F)(F)F — higher, 31.4%
- CCCc1nc2ccccc2c(C(=O)OCc2nnc(-c3cc(OC)c(OC)c(OC)c3)o2)c1CC — lower, 2.49%
- COC(=O)c1c(-c2ccncc2)csc1NC(=O)c1ccoc1C — lower, -9.35%
- O=C(NCCc1ccccc1)C(=O)NCC1OCCN1S(=O)(=O)c1ccc2c(c1)OCCO2 (stereo not shown) — lower, -8.42%
- Cn1c(=O)oc2cc(S(=O)(=O)N3CCC(C(=O)NCc4ccc(F)cc4)CC3)ccc21 — lower, -8.93%
- COc1ccc(-c2nc3ccccc3c(=O)n2NC(=O)Cc2ccccc2)cc1 — lower, 5.92%
- O=C(NCCc1c[nH]c2ccccc12)/C(=C\c1cccnc1)NC(=O)c1ccccc1Br — lower, -65.1%
- CC(=O)Nc1ccc(NC(=O)CN(c2ccc(C34CC5CC(CC(C5)C3)C4)cc2)S(C)(=O)=O)cc1 — lower, 8.76%
- Cc1cc(=O)oc2c(C)c(OCC(=O)NCCN3CCOCC3)ccc12 — lower, 10.5%
- COc1ccc(CCNC(=O)C/C(C)=N/NC(=O)C(c2ccccc2)c2ccccc2)cc1OC — lower, -27.5%
- COC(=O)c1ccc(COc2cccc(OC)c2)o1 — lower, -4.8%
- Cc1c(C(=O)N2CCCC2)oc2c1-c1nn(CC(=O)NCCCOC(C)C)cc1CC2 — lower, 10.6%
- COc1ccc(NC(=S)NNC(=O)C2CC2c2ccc(C)cc2)cc1 (stereo not shown) — lower, 1.74%
- O=C(O)c1ccc(-n2nnnc2SCc2cccc(Br)c2)cc1 — lower, 13.2%
- O=C(Nc1ccon1)c1sc2ccccc2c1Cl — higher, 15.9%
- CCOC(=O)c1ccc(NS(=O)(=O)c2ccc3oc(=O)[nH]c3c2)cc1 — lower, 6.15%
- COc1ccc(CCNC(=O)NCCc2c[nH]c3ccccc23)cc1OC — lower, -3.31%
- NC1=Nc2ccccc2Oc2ccccc21 — lower, -21.9%
- CCOC(=O)C(C)n1cnc2c(nnn2-c2cccc(Cl)c2)c1=O (stereo not shown) — lower, -26.3%
- O=C(c1ccc(S(=O)(=O)Cc2cc(F)ccc2F)c([N+](=O)[O-])c1)N1CCCC1 — lower, -20.7%
- Cc1ccc(C23CC4CC(CC(NC(=O)NN)(C4)C2)C3)cc1 — higher, 14.6%
- CCOC(=O)CSc1ccc(C(=O)N2CCN(C)CC2)cc1[N+](=O)[O-] — lower, 13%
- CC(=O)NC(Cc1ccccc1)C(=O)N1CCN(C(=O)c2cccs2)CC1 (stereo not shown) — lower, 1.2%
- COc1cccc(/C=C/C(=O)OCC(=O)c2ccc3c(c2)NC(=O)CO3)c1OC — lower, -2.12%
- C[C@]12CCC(=O)C=C1CC[C@@H]1[C@@H]2CC[C@@]2(C)[C@H]1CC[C@]2(O)C(=O)CO — lower, 9.17%
- CCc1nc(CNC(=O)C2CCC(=O)N(CCc3cccc(F)c3)C2)no1 (stereo not shown) — lower, 9.82%
- CCOc1nc(NCCO)nc(NCCC2=CCCCC2)n1 — lower, -12.9%
- CCOc1ccc(-c2n[nH]c(=S)n2Cc2ccccc2)cc1 — higher, 15.2%
- CCc1nc(N[C@@H](Cc2c[nH]c3ccccc23)C(=O)O)c2oc3ccccc3c2n1 — lower, 8.39%
- S=C(NCc1ccccc1)NC1CCCCC1 — higher, 18.8%
- O=C(COc1ccc(F)cc1)NNC(=O)c1cc2ccccc2oc1=O — lower, -10.3%
- O=C1CCCc2nn(-c3ccccc3)nc21 — lower, 11.3%
- CCOc1ccc(S(=O)(=O)NCCC(=O)NCc2ccncc2)cc1 — lower, -26.2%
- Cc1cc(-c2n[nH]c(=S)n2-c2ccccc2C)cs1 — higher, 18.8%
- CCOc1cc(/C=N\Nc2nc(Nc3ccccc3)nc(N3CCOCC3)n2)ccc1OC(=O)c1ccco1 — lower, -3.25%
